The supplement of paper PMC3334620
Whole data set: some 33,000 sequences, median “E-score (-0.5 to 0.5)” near -0.016, cut for the highest 2% near 0.32. The list shows a part of the results.

molecular target: T1, Stp1 (UniProt B3LFK1); assay: PBM E-score (8-mer binding enrichment) (E-score (-0.5 to 0.5)); higher = stronger / more preferred TF binding; most listed sequences are background and not binding sites; conditions: protein concentration: 200 nM; construct: GST-full length
T1 sequence: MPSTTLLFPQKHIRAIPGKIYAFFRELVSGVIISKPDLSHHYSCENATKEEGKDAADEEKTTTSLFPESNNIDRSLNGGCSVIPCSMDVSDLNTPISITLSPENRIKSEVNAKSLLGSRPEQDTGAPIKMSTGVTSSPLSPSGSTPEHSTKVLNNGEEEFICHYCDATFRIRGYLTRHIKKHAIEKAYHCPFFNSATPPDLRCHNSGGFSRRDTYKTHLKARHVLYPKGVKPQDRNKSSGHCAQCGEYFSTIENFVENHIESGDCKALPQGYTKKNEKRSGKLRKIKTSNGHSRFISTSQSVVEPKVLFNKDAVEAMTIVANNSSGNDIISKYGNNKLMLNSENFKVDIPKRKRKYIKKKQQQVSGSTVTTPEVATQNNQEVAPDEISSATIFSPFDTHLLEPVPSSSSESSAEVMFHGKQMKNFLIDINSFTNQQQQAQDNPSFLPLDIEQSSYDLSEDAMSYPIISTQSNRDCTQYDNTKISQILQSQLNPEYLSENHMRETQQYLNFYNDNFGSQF
Protocol: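 Universal 'all 10-mer' protein binding microarrays (Agilent AMADID 015681) probed with GST-tagged S. cerevisiae TFs (full-length or DBD) made by in vitro transcription/translation (PURExpress), about 100-200 nM. Bound TF was detected with fluorescent anti-GST. Each ungapped 8-mer (which stands for itself and its reverse complement) is scored by the PBM enrichment score (E-score), a modified Wilcoxon-Mann-Whitney statistic from -0.5 to +0.5, computed with the Universal PBM Analysis Suite. Scale: above 0.35 generally sequence-specific binding.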

Row | Sequence | PBM E-score
1 | ACTGGCGA | -0.0364
2 | AATGGAAG | -0.122
3 | CTGCCGAA | 0.127
4 | TCAAGAGA | -0.0071
5 | ATCGCTCC | -0.133
6 | CCCATCGG | -0.0927
7 | AGGCTCTA | 0.15
8 | CTCCGACA | -0.0252
9 | ACTCTTGG | -0.0882
10 | GCGCGTAC | 0.27
11 | CAGCCCGG | -0.147
12 | AGTCATCC | -0.239
13 | CATAAGGA | -0.0131
14 | GTTGGATA | 0.0451
15 | ATAGGGTG | -0.177
16 | AACTGATC | 0.00151
17 | CCGCAACG | 0.239
18 | ATTATCAA | 0.117
19 | TCATATCA | 0.0845
20 | CCATCCAC | -0.0981
21 | CGCTGACC | -0.0741
22 | AGTTAAGA | 0.13

Row | Sequence | PBM E-score
23 | GACTGGTA | -0.131
24 | AGCACTTG | -0.266
25 | AAACGCAG | -0.0288
26 | AAGTTCAG | 0.0667
27 | CTAGCACC | -0.101
28 | ACCTTCCC | -0.206
29 | GGGGTTAC | -0.236
30 | CTTGGACC | -0.247
31 | CGGGAATA | 0.0616
32 | AGCAGAAC | -0.0297
33 | CGTATTGC | 0.31
34 | ACGTTGGC | -0.196
35 | GACCATAC | -0.0929
36 | GGCGACCC | -0.127
37 | GTACCGGA | -0.186
38 | CCGGGATA | -0.16
39 | CGCCGTCC | 0.443
40 | GGGGGTTA | -0.364
41 | AGTACTCA | -0.181
42 | AGCATGCG | 0.016
43 | CCGGTCTC | -0.191
44 | ACTAGAGA | 0.0388

Row | Sequence | PBM E-score
45 | CTATGTGC | -0.00165
46 | AGTCGTGA | -0.212
47 | CGGGCGAC | -0.18
48 | CAAGTGTA | 0.0361
49 | AAGTTGGT | 0.0835
50 | ACAATCCC | -0.122
51 | GCGCGCAA | 0.241
52 | CTACTATA | 0.0795
53 | ACAAGGAA | 0.112
54 | CGGAGGTC | -0.113
55 | CAATTTGA | 0.142
56 | TACAACGA | 0.0239
57 | ATAGCCCA | -0.135
58 | CCCCGCGA | -0.109
59 | CCCTGACA | -0.176
60 | GAGGACAA | -0.101
61 | CCAGCTGC | -0.0237
62 | GATTTGAC | 0.121
63 | AATCTATG | 0.159
64 | AGCGTGGC | 0.0819
65 | CTGTCGGC | -0.0349
66 | CATAGTTA | -0.0909

Row | Sequence | PBM E-score
67 | ACTTCGCT | -0.0565
68 | ATAAGCTC | -0.0907
69 | CGAAACCC | 0.011
70 | ACACGCTG | -0.0206
71 | CTCCGCCA | -0.187
72 | GAGGGGCC | -0.22
73 | CGATCCCG | -0.169
74 | TATGGTGA | 0.0568
75 | AAGGATTC | -0.0723
76 | CAAACTAA | 0.22
77 | GCTCAGCC | -0.123
78 | GGGACCAA | -0.143
79 | ACTTGCCC | -0.2
80 | AGTAGTAG | -0.0597
81 | CCTTACAA | 0.175
82 | AATATACT | 0.13
83 | AACACGTC | -0.0601
84 | AGGGTATC | -0.0323
85 | AACAACCT | -0.0862
86 | AGATATAT | 0.22
